Laboratory results taken from paper PMC4336329 (PLoS ONE, 2015).
The campaign covered roughly 310,000 compounds. About 2,200 (0.71%) showed an effect of 50% or more. Effects have a minus sign here. This is one part of the list.

target: human ether-à-go-go-related gene (hERG) potassium channel (human, UniProt Q12809); assay: primary screen, population patch clamp on CHO cells stably expressing hERG
Sequence (Q12809 whole entry, looked up): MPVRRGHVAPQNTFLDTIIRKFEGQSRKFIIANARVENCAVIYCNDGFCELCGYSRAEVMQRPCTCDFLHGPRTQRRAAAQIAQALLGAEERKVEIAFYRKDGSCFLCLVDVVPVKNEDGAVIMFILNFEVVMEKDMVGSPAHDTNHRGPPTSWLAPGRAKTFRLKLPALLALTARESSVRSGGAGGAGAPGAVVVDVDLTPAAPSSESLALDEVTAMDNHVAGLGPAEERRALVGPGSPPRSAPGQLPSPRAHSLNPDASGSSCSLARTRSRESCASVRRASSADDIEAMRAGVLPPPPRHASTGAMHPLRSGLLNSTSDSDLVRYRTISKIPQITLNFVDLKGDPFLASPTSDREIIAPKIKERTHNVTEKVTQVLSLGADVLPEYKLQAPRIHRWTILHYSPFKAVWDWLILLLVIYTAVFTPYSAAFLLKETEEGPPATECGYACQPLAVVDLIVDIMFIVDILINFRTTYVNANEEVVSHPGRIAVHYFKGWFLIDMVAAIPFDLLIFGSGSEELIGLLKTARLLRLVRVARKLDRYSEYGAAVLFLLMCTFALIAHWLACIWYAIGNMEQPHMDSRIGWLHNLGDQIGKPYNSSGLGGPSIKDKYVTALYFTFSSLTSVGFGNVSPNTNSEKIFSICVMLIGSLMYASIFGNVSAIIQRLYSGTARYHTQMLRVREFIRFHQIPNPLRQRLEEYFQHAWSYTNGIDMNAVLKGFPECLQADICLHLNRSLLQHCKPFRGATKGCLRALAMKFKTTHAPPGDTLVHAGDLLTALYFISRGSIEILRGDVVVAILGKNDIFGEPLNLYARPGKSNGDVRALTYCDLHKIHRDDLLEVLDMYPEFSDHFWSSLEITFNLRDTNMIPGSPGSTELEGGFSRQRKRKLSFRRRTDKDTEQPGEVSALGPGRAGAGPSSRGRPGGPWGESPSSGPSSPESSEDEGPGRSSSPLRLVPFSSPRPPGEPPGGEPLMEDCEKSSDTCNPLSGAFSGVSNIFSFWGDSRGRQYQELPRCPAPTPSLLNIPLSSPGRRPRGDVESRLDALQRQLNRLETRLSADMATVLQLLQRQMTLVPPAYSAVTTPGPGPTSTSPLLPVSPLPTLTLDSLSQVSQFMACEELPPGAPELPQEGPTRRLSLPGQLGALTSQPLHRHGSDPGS

Point of comparison: `COc1ccc(Nc2nc(N)nc(CN3CCOCC3)n2)cc1`, “hERG current change (%, negative = inhibition) at 1uM” value 1.93%. Against it:
- COc1ccccc1CC(=O)Nc1ccc(Cl)cc1C(=O)O — higher, 9.83%
- COc1ccccc1CCNS(=O)(=O)c1ccc(C(=O)O)n1C — higher, 11.6%
- O=C1CN(C(=O)/C=C/c2ccc(Cl)cc2Cl)CCN1 — lower, 1.56%
- Fc1ccc(Cn2cccc2C2=NC(c3ccccc3)CO2)cc1 (centres unmarked) — lower, 0.0212%
- COCCN(CC(=O)NCc1ccc(F)cc1)C(=O)CCC(=O)Nc1ccccn1 — higher, 10.4%
- CCOc1ccccc1N(C)S(=O)(=O)c1ccc2c(c1)CCN2C(=O)CCC(=O)O — higher, 16.4%
- CCOc1ccc(N2C(=O)C3C(c4ccc(OC)cc4OC)NC(CCSC)(C(=O)OC)C3C2=O)cc1 (centres unmarked) — higher, 8.03%
- O=C1NC(=O)N(c2ccc3c(c2)OCO3)C(=O)/C1=C/c1cccs1 — higher, 16.6%
- O=C(c1cccc(-n2cnnn2)c1)N1CCOCC1 — higher, 2.61%
- Cc1ccc(S(=O)(=O)N2CCCCC2)cc1C(=O)NCc1ccncc1 — higher, 10.4%
- CCc1ccc(/C=N\n2cnnc2)cc1 — higher, 11%
- O=C(Oc1c(CN2CCOCC2)cc(Cl)c2cccnc12)c1ccccc1Cl — higher, 5.78%
- CCn1nc(C)c(/C=N/NC(=O)Cn2nc(C)cc2C)c1C — higher, 10.2%
- CC(=O)c1ccc(NC(=S)NC(C)CCc2ccccc2)cc1 (centres unmarked) — higher, 9.87%
- COc1ccc(CN(CC2CCCO2)S(=O)(=O)c2ccc(C(=O)O)cc2)cc1OC (centres unmarked) — lower, 0.828%
- CC(=O)Nc1ccc(Nc2nc(C)c([N+](=O)[O-])c(Nc3ccc(NC(C)=O)cc3)n2)cc1 — higher, 20.7%
- O=C(C1CCCN(S(=O)(=O)c2cccc3cccnc23)C1)N1CCN(c2ccc(F)cc2)CC1 (centres unmarked) — lower, -50.1%
- COc1ccc(N(CC(=O)N2CCN(C)CC2)S(=O)(=O)c2ccccc2)cc1 — higher, 7.23%
- COc1ccc(-n2cc(CN(C)C3CCOCC3)c(-c3cccc(F)c3)n2)cc1 — lower, -3.87%
- CC(=O)OCC(=O)[C@@]1(O)CC[C@H]2[C@@H]3CCC4=CC(=O)C=C[C@]4(C)[C@H]3C(=O)C[C@@]21C — higher, 18.6%
- CCc1nccn1S(=O)(=O)c1cc(OC)c(Cl)cc1OC — lower, -8.36%
- CCCCCC(=O)OCCc1c(C)nc2nc[nH]n2c1=O — higher, 14.3%
- CCOC(=O)c1[nH]c(C)c(/C=N/O)c1C — lower, 0.579%
- COCCOCC(O)CN1CCN(c2ccccc2)CC1.O=C(O)C(=O)O (centres unmarked) — higher, 2.97%
- COc1ccccc1CCC(=O)NC1CCCN(c2ccc(C(F)(F)F)cn2)C1 (centres unmarked) — higher, 6.13%
- CC(C(=O)Nc1ccccc1)N(C)CCOc1ccc(Br)cc1 (centres unmarked) — higher, 5.82%
- CC(C)(C)NC(=O)c1ccc(NC(=O)c2ccccc2-c2ccccc2C(=O)O)cc1 — higher, 22.2%
- Cc1cc(C)c(C(=O)N(C)CC2CCCN(CCc3ccccc3F)C2)o1 (centres unmarked) — lower, -48%
- CCN1CCN(c2cc(C)c3cc(NC(=S)NCCN(C)C)ccc3n2)CC1 — higher, 8.49%
- Cc1ccc(-n2cc(-c3ccccc3)c3c(=O)[nH]cnc32)cc1 — lower, 0.911%
- O=C1COc2ccc(C(=O)NCc3ccc4c(c3)OCO4)cc2N1 — higher, 3.33%
- CC(C)NC(=O)c1cc2c(C(F)(F)F)nn(C)c2s1 — higher, 6.69%
- CC(C)C(=O)NC(=S)Nc1ccc(S(=O)(=O)N2CCN(C)CC2)cc1 — higher, 5.81%
- Cc1cc(OC(=O)c2ccccc2Cl)ccc1N1C(=O)CCC1=O — lower, -0.508%
- COc1ccc(C(=O)NCC(=O)OCC(=O)N2CC(C)CC(C)C2)cc1 (centres unmarked) — lower, 0.543%
- CN1c2ccccc2C(O)=C(C(=S)Nc2ccc(Cl)cc2)S1(=O)=O — lower, -1.95%
- Cc1ccccc1-c1nc2ccccc2c(=O)n1C1CCS(=O)(=O)C1 (centres unmarked) — higher, 13.5%
- CSc1ccc(C(=O)C2CCCN(C)C2)cc1 (centres unmarked) — lower, -3.51%
- CCOc1ccc(CCNC(=O)COC(=O)C2CCN(c3ccc(C(F)(F)F)cn3)CC2)cc1OCC — higher, 8.9%
- COc1cc(OC)cc(-c2nc3nc(C)c(CCC(=O)O)c(C)n3n2)c1 — higher, 4.63%
- CCCc1nc(SCC(=O)N2CCCc3ccccc32)c2c(=O)n(C)c(=O)n(C)c2n1 — lower, 0.825%
- Fc1ccc(CNc2nc3ccccc3n3nnnc23)cc1 — higher, 7.24%
- Cc1ccnc(NS(=O)(=O)c2ccc(NC(=O)c3ccccc3F)cc2)n1 — higher, 16.4%
